{"source": "the supplement of paper PMC11417369", "note": "± gives the standard deviation of the averaged measurements. The list shows a part of the results."}
{"test_system": "PfAP2-I AP2 domain 3 (GST-tagged)", "assay": "gcPBM binding intensity (ln(normalized median fluorescence intensity)); higher = stronger DNA binding", "method_in_brief": "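Binding intensity is defined as the maximum Masliner-normalised natural-log median intensity across replicate spots for either probe orientation. It was measured on an Agilent 4 × 180k array of primer-extended double-stranded 36-bp intergenic genomic probes and negative controls, to which GST-tagged P. falciparum DNA-binding domains made in E. coli were applied for 1 h in 1× PBS with 1% milk, 0.2 mg/ml BSA, 0.5% salmon testes DNA and 0.03% Triton X-100. Detection was by Alexa488 anti-GST antibody and scanning at 488 nm.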"}
{"sequence": "TATATATTAAAACACACACACATATATATATATATA [CACACA_site3787]", "gcPBM binding intensity (ln)": "9.27 ± 0.24"}
{"sequence": "CAGAAATATTAATGCTGTACGGAATACATATATTTT [XGTACX_site539]", "gcPBM binding intensity (ln)": "7.53 ± 0.61"}
{"sequence": "ATTTTAATGGGACATGCATGGGACAAACTACAAATT [TGCATGCA_site853]", "gcPBM binding intensity (ln)": "8.33 ± 0.81"}
{"sequence": "AGAATATTTATATGATGTACTTATATATATATATAT [XGTACX_site3021]", "gcPBM binding intensity (ln)": "9.34 ± 0.46"}
{"sequence": "TAAAAATATTTAAACTGTACTATTTTATGTTAAATG [XGTACX_site6620]", "gcPBM binding intensity (ln)": "7.71 ± 0.092"}
{"sequence": "ATAATCCAAAAAAATCAAATAAAATAAAATAAAATA [CACACA_negctrl_site449]", "gcPBM binding intensity (ln)": "7.7 ± 0.61"}
{"sequence": "AATAAAAACTACATGTGTACATAATAAATACATATA [XGTACX_site755]", "gcPBM binding intensity (ln)": "7.87 ± 0.47"}
{"sequence": "TTTTTTCTTTTCTTTTTATTTTATTTTGTTTTATTT [CACACA_negctrl_site799]", "gcPBM binding intensity (ln)": "7.32 ± 0.64"}
{"sequence": "TGTTGCAAAACAAAAAAAAAAAAAAAAAATAATAAT [CACACA_negctrl_site1642]", "gcPBM binding intensity (ln)": "7.82 ± 0.24"}
{"sequence": "TGAACCAGATTTAGAAGTACTAAATATTACATACAT [XGTACX_site2437]", "gcPBM binding intensity (ln)": "7.55 ± 0.49"}
{"sequence": "TTTTCTTACATGAGTGTACACACTTTTTTTCAGAAA [CACACA_site70]", "gcPBM binding intensity (ln)": "8.16 ± 0.57"}
{"sequence": "TTTATATAATTTTAATGTACATATATATATATAAAT [XGTACX_site4381]", "gcPBM binding intensity (ln)": "7.78 ± 0.13"}
{"sequence": "TTATTTGAATAATGTTTGCACTTAGAGTATTTTATA", "gcPBM binding intensity (ln)": "8.82 ± 0.18"}
{"sequence": "ATATATCATAAATAAATGAAAATATTTTCTATGTGT [CACACA_negctrl_site689]", "gcPBM binding intensity (ln)": "7.77 ± 0.62"}
{"sequence": "TTCTTCACATACACTTCAAAATTTGATAAAACATTA [CACACA_negctrl_site472]", "gcPBM binding intensity (ln)": "8.24 ± 0.38"}
{"sequence": "TAATAAATAAGATTCACACATATTTAAATGTTATGC [CACACA_site5275]", "gcPBM binding intensity (ln)": "7.49 ± 0.47"}
{"sequence": "TATCTATAATATTATACACACATATATGCATAATAT [CACACA_site6175]", "gcPBM binding intensity (ln)": "8.33 ± 0.67"}
{"sequence": "GTATATAATTTTTTTTTTTTTTTCATTCTTTTCCTT [CACACA_negctrl_site1780]", "gcPBM binding intensity (ln)": "7.75 ± 0.59"}
{"sequence": "ATGAATTGACCATATTGTACATATTTAGGACTTACC [XGTACX_site8072]", "gcPBM binding intensity (ln)": "7.96 ± 0.76"}
{"sequence": "AAATATATGAAATATACACACTTCTTTGGTATTATT [CACACA_site4414]", "gcPBM binding intensity (ln)": "7.5 ± 0.61"}
{"sequence": "TATATATTTTTTTCAAGTACACATTACAGTTACATA [XGTACX_site2713]", "gcPBM binding intensity (ln)": "8.03 ± 0.23"}
{"sequence": "ATTCGATGTTTTAAATGTACACAAATTGAAGGAATA [XGTACX_site409]", "gcPBM binding intensity (ln)": "8.12 ± 0.41"}
{"sequence": "ATGTTTTCTCTTTCGGTGCATTGTTTTCTATACTTT [GTGCAC_site9483]", "gcPBM binding intensity (ln)": "10.6 ± 0.38"}
{"sequence": "ATAATATAATATAAAACACACATATGTACCTTCTAA [CACACA_site2761]", "gcPBM binding intensity (ln)": "7.77 ± 0.47"}
{"sequence": "CAAGTTCAAAATACAAGGAAGAAACAAAACTTGGCG [GTGCAC_negctrl_site600]", "gcPBM binding intensity (ln)": "7.88 ± 0.93"}
{"sequence": "TAAAAATATCTGTATACACACATATATATATATATA [CACACA_site6042]", "gcPBM binding intensity (ln)": "9.44 ± 0.39"}
{"sequence": "AAAAAAAAAAAAAAAAGTACAAATCTTTATTTATTA [XGTACX_site3305]", "gcPBM binding intensity (ln)": "8.49 ± 0.67"}
{"sequence": "AAAACAAATGCTTAAAGTACTTATTATTTTTCTTTT [XGTACX_site6324]", "gcPBM binding intensity (ln)": "7.68 ± 0.83"}
{"sequence": "TTCCTACTATTCAAACGTACAAAATATTTAAATAAT [XGTACX_site700]", "gcPBM binding intensity (ln)": "7.92 ± 0.41"}
{"sequence": "TATTATAAAACATTATGTACATATTCTGAAAAATAG [XGTACX_site6577]", "gcPBM binding intensity (ln)": "7.68 ± 0.4"}
{"sequence": "TATTTCTTATTTATTTTTTAAGGAAATTAAAGATTT [CACACA_negctrl_site258]", "gcPBM binding intensity (ln)": "7.31 ± 0.38"}
{"sequence": "CAAAATAAAAAATTCACACACATATATATATATATA [CACACA_site2088]", "gcPBM binding intensity (ln)": "9.37 ± 0.27"}
{"sequence": "TGGTGATCAAAATATACATGCATATGTTCTGTTATT [TGCATGCA_site614]", "gcPBM binding intensity (ln)": "7.56 ± 0.71"}
{"sequence": "TATATATTAGAAGATAGTACATATATATTTATTAAT [XGTACX_site1011]", "gcPBM binding intensity (ln)": "7.74 ± 0.52"}
{"sequence": "GCTCAATGTTTTACATGTACATATATATATATATAT [XGTACX_site8210]", "gcPBM binding intensity (ln)": "9.38 ± 0.42"}
{"sequence": "TATGATATCTATAATACACACATATACATAAGATCT [CACACA_site6652]", "gcPBM binding intensity (ln)": "7.75 ± 0.33"}
{"sequence": "TTAATATAACTTTTTGCACACTTAATTTTTTTTTTT [CACACA_site3364]", "gcPBM binding intensity (ln)": "9.32 ± 0.085"}
{"sequence": "TTATATAAAACATTAACACACAAAGAAAAAAAATTA [CACACA_site1793]", "gcPBM binding intensity (ln)": "7.71 ± 0.67"}
{"sequence": "ATATAAATCATTGGTTGTACATATAATATTTTATAA [XGTACX_site925]", "gcPBM binding intensity (ln)": "7.95 ± 0.2"}
{"sequence": "TATTTTTACCCATAAAGTACACATAAATATAAAATA [XGTACX_site177]", "gcPBM binding intensity (ln)": "7.91 ± 0.36"}
{"sequence": "TATATATCTATATATTGTACATATGTTTGTATGTGT [XGTACX_site7420]", "gcPBM binding intensity (ln)": "7.92 ± 0.5"}
{"sequence": "TAATATTTCTTATTTTATATTTGTATATGAATGGAT [XGTACX_negctrl_site278]", "gcPBM binding intensity (ln)": "7.53 ± 0.42"}
{"sequence": "TTTTTTTTTTTTTGATGTACAATTAATATTATAAAA [XGTACX_site6969]", "gcPBM binding intensity (ln)": "8.16 ± 0.66"}
{"sequence": "ATTTCTTTTTTATTGAGTACATATGACCATGTTCAA [XGTACX_site5365]", "gcPBM binding intensity (ln)": "8.14 ± 0.38"}
{"sequence": "AGTAATAAATAATTTACACACATATTATATCATCAC [CACACA_site1890]", "gcPBM binding intensity (ln)": "7.71 ± 0.56"}
{"sequence": "CATTTTAAAGAAAATACACACAAAAATAGATATATA [CACACA_site6773]", "gcPBM binding intensity (ln)": "7.54 ± 0.49"}
{"sequence": "GAAAAAAATGAAATTAGTACTTATCTTAAATTTTTA [XGTACX_site1018]", "gcPBM binding intensity (ln)": "7.35 ± 0.42"}
{"sequence": "AAAAATATATAATAAAGTACACATAAATGAATAAAT [XGTACX_site329]", "gcPBM binding intensity (ln)": "7.7 ± 0.49"}
{"sequence": "TGTAAGCACATACAAACACACAACATTATTTTTATC [CACACA_site2186]", "gcPBM binding intensity (ln)": "7.96 ± 0.36"}
{"sequence": "TAGTATAATATGAACACACACACACGCACAAAAAAA [CACACA_site7035]", "gcPBM binding intensity (ln)": "8.41 ± 0.62"}
{"sequence": "ATCGTTATATAAAAATGTACTTATAAATTGTATACA [XGTACX_site6664]", "gcPBM binding intensity (ln)": "7.85 ± 0.41"}
{"sequence": "CAACATTTGATAAACACACAGAAGTATAAATATATA [CACACA_site2365]", "gcPBM binding intensity (ln)": "7.58 ± 0.61"}
{"sequence": "TATTATATTATGTGATGTACATATTTATATAGGCCC [XGTACX_site4746]", "gcPBM binding intensity (ln)": "7.76 ± 0.29"}
{"sequence": "ATTTATTGACTATTTACACACATATTTATTAAAATA [CACACA_site4980]", "gcPBM binding intensity (ln)": "8.16 ± 0.52"}
{"sequence": "TACGCTCCCAGACACACACACACACCGATATAATAT [CACACA_site8098]", "gcPBM binding intensity (ln)": "8.26 ± 0.43"}
{"sequence": "TATTACATACCTTATTGTACAAATTATATATTAAAG [XGTACX_site7334]", "gcPBM binding intensity (ln)": "7.91 ± 0.48"}
